Data reported in paper PMC4336329 (PLoS ONE, 2015).
The whole screen tested about 310,000 compounds, of which about 14,000 (4.5%) showed an effect of 50% or more. Effects have a minus sign here. This is one part of the list.

target: human ether-à-go-go-related gene (hERG) potassium channel (human, UniProt Q12809); test: primary screen, population patch clamp on CHO cells stably expressing hERG
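Also: peak tail current of the secondary pulse compared with the same well before compound.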

Chain of human ether-à-go-go-related gene (hERG) potassium channel (Q12809 whole entry, looked up): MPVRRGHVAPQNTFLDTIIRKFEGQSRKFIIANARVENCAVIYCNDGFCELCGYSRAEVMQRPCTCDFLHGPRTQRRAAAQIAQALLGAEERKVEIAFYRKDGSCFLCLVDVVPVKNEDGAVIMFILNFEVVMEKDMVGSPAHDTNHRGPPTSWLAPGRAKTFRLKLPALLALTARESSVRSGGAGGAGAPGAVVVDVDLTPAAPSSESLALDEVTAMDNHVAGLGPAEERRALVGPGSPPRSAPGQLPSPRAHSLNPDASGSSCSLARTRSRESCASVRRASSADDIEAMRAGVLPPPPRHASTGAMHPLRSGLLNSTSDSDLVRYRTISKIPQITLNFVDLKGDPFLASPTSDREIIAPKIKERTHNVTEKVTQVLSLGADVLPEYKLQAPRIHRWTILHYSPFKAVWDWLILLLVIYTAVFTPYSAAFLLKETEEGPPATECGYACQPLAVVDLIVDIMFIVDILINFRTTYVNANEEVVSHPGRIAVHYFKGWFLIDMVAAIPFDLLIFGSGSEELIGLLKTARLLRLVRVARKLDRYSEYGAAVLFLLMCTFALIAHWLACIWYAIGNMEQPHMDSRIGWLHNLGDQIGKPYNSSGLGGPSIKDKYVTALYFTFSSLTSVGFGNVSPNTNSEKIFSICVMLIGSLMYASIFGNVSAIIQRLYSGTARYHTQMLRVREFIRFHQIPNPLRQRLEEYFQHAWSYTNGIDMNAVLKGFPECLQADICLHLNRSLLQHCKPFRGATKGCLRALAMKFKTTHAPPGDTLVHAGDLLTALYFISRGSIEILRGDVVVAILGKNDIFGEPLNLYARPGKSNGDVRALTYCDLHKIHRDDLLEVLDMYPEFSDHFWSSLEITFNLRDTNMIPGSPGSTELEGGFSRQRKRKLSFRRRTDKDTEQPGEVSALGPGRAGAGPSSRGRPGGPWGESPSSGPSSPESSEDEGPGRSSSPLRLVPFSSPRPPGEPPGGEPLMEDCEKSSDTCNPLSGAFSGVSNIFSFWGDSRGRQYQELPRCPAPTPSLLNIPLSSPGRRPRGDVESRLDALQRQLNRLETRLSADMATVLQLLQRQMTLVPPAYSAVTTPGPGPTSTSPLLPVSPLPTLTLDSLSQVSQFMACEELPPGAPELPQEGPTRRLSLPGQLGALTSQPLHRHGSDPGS

Structure (SMILES) | hERG current change (%, negative = inhibition) at 10uM
COc1cc(CNc2ccc3[nH]c(=O)[nH]c3c2)ccc1OCc1ccccc1F | 11.6%
CCN1CCN(S(=O)(=O)c2c(C)cc(C)cc2C)CC1 | 10.8%
CSc1cccc(NC(=O)C2CCCN2S(=O)(=O)c2ccc3c(c2)CCC(=O)N3)c1 (stereo not drawn) | -41.9%
O=C(NC1CCCC1)c1cc(=O)[nH]c2ccccc12 | 22%
COc1ccc(OC)c(CN2CCN(C(=O)CN3C(=O)NC4(CCCC4)C3=O)CC2)c1 | -5.28%
CCCNC(=O)N1CCC(C(=O)c2ccc(F)cc2)CC1 | -2.05%
COc1ccc(C(=O)NC(=S)N2CCN(c3ccc([N+](=O)[O-])cc3)CC2)cc1 | -49.2%
CC(C)n1c(=S)[nH]c2cc(C(F)(F)F)ccc21 | 21.1%
O=S(=O)(Nc1ccc(N2CCOCC2)cc1)c1cccs1 | 0.205%
COc1ccc(CCNC(=O)CSCc2n[nH]c(=O)[nH]2)cc1OC | -16.1%
COc1ccc(NC(=O)N2CCC(c3nc4ccccc4[nH]3)CC2)cc1 | 9.26%
CC(=O)c1c(C)nc(-c2ccc(Cl)cc2Cl)n1O | 5.52%
O=C(Cc1ccccc1[N+](=O)[O-])N1CCOCC1 | 13.6%
Cc1cccc(C)c1NC(=O)CSc1nnc(Cc2ccccc2)o1 | -12.6%
COc1ccccc1C(CNC(=O)c1cc(C)nc2ccccc12)N(C)C (stereo not drawn) | 8.44%
CCc1ccc(N2CC(C(=O)N3CCN(c4ccccn4)CC3)CC2=O)cc1 (stereo not drawn) | -24.3%
CC(=O)Nc1ccc2c(CSc3nnc(N)s3)cc(=O)oc2c1 | 4.47%
COc1ccc(/C=C2\C(=O)NC(=S)N2C(=O)c2ccc(C)cc2)cc1 | 5.76%
CN1CCN(c2ccc(C(CC(N)=O)NC(=O)c3ccccc3)cc2[N+](=O)[O-])CC1 (stereo not drawn) | 16.6%
O=c1[nH]c2ccc(S(=O)(=O)Nc3ccc(Cl)cc3)cc2[nH]1 | 13.8%
Nn1c(COc2cccc(Br)c2)nnc1SCC(=O)NCC1CCCO1 (stereo not drawn) | -7.31%
O=C(O)C1Cn2c(nc3c(c2=O)C2(CCCC2)Cc2ccccc2-3)S1 (stereo not drawn) | 17.3%
CC(=O)NCCn1c(SCC(=O)c2ccccc2)nc2ccccc2c1=O | -29.9%

Structure (SMILES) | hERG current change (%, negative = inhibition) at 10uM
CC(SC1=NCCN1S(=O)(=O)c1ccccc1)c1ccccc1 (stereo not drawn) | -1.15%
Cc1cnc(C(=O)OCC(=O)Nc2cc(-c3cc(C)c(C)cc3C)nn2-c2ccccc2)cn1 | -13.3%
CCCCn1c(N)c(N(CCOC)C(=O)CSCc2ccc(Cl)c(Cl)c2)c(=O)[nH]c1=O | -6.89%
CC1(C)CC(NC(=O)c2cc(Cl)ccc2Cl)CC(C)(C)N1 | -1.21%
Cc1c(NC(=O)COC(=O)c2ccc(O)cc2)c(=O)n(-c2ccccc2)n1C | 24.5%
Cc1[nH]n(C(N)=S)c(=O)c1C(c1ccccc1)C(C#N)C#N (stereo not drawn) | 23.8%
O=C(NN=C1C2CC3CC1CC(Cl)(C3)C2)c1ccccn1 | -1.74%
COc1ccc(OCC(=O)NC(=O)c2ccccc2)c([N+](=O)[O-])c1 | -6.74%
CC1CCCCC1N1CCN(C(=O)c2cccc(F)c2)CC1.O=C(O)C(=O)O (stereo not drawn) | -17.5%
CC(C)C(NC(=O)c1ccccc1F)C(=O)NCc1ccc(F)cc1 (stereo not drawn) | 3.65%
CC(C)c1ccc(-c2c(NCCc3ccccc3)c(=O)c2=O)cc1 | 22.1%
Cc1oc2cc3oc(=O)cc(C)c3cc2c1C | 15.6%
COc1ccc2c(=O)c(-c3nc(C)cs3)coc2c1 | 12.9%
O=c1[nH]c(=O)n(C2CCCCC2)c(O)c1C=NCCCn1ccnc1 | 7.34%
COc1cc(C(=O)N2CCCc3ccccc32)c([N+](=O)[O-])cc1OC | 11.1%
Cc1cccc(C(=O)OCC(=O)NCC2CCCO2)c1O (stereo not drawn) | 4.16%
O=C1CC[C@@H](CN(Cc2ccccc2)Cc2cn[nH]c2-c2cc3ccccc3o2)N1 | -6.77%
COc1cccc(OC)c1C(=O)N1CCN(S(=O)(=O)c2ccc(C)cc2)CC1 | 0.852%
O=C(O)c1ccccc1-c1ccccc1C(=O)NCCCO | 16.4%
CCO[C@@H]1OC(C(=O)NCc2ccccc2)=C[C@H](c2ccc(Br)cc2)[C@H]1CCCO | -11.5%
COc1ccc(CCn2c(-c3ccncc3)n[nH]c2=S)cc1OC | 15.7%
NC(=O)NCC1CC1 | 13.2%
COC(=O)C1=C(C)NC(=O)NC1c1cn(-c2ccccc2)nc1-c1cccs1 (stereo not drawn) | -2.23%

Structure (SMILES) | hERG current change (%, negative = inhibition) at 10uM
COc1ccc(OC)c(-c2csc(N(C)C(=O)Cc3ccccc3)n2)c1 | 21.1%
Cc1ccc(NC(=O)Nc2cccs2)c(Cl)c1 | 11.2%
COc1ccc(N2C(=O)N3[C@H](c4ccc(Cl)cc4)[C@@H]4C(=O)N(C5CCCCC5)C(=O)[C@@H]4[C@]3(Cc3ccc(Cl)cc3)C2=O)cc1 | 4.9%
COC(=O)COc1ccc2c(c1)O/C(=C\c1cccc([N+](=O)[O-])c1)C2=O | 6.19%
Nc1cc(N)nc(SCC(=O)Nc2cc(S(=O)(=O)N3CCOCC3)ccc2Cl)n1 | 0.88%
CCSc1nc(-c2ccccc2)nc2c1CCCC2 | 7.26%
CCc1c(O)nc(SCc2ccccc2)n(C(C)CC)c1=O (stereo not drawn) | 9.58%
CCOC(=O)C(=O)Nc1ccccc1C#N | 14.3%
O=C(Nc1ncc(Cc2cccc(Cl)c2)s1)C1CCCO1 (stereo not drawn) | -12.5%
CCCc1nn(C)c(C(=O)Nc2ccc(C(C)(C)C)cc2)c1Cl | 17.7%
CCOC(=O)N/N=C\c1ccc([N+](=O)[O-])o1 | 15.1%
Cc1ccc(N2C(=O)CC(C3CCCO3)C2=O)cc1 (stereo not drawn) | 14.6%
O=C1CCC(C(=O)N(CCO)Cc2ccccc2)CN1CCCN1CCOCC1 (stereo not drawn) | 30.9%
Cc1cccc(-c2nc3ccc(C(=O)NCCN4CCN(C)CC4)cc3nc2-c2cccc(C)c2)c1 | -11.7%
CC(C)CC(NC(N)=O)C(=O)OCC(=O)NC(=O)NC1CCCC1 (stereo not drawn) | 16.7%
Cc1n[nH]c(=S)n(/N=C/c2cccs2)c1=O | 17.9%
O=C(c1cnn2c(C(F)F)cc(-c3ccccc3)nc12)N1CCc2ccccc21 | 23%
O=C(CNC(=O)c1ccco1)Nc1ccc(Br)cc1 | 9.84%
COC(=O)c1ccc(-c2ccco2)n1Cc1cc(C)ccc1C | 5.05%
COC(=O)C1=C(N)Oc2c(c(=O)oc3ccccc23)C1c1cccnc1 (stereo not drawn) | -24.1%
CC(=O)c1ccc[n+](CC(=O)NC(C)c2ccccc2)c1.[Cl-] (stereo not drawn) | 26.8%
Cc1ccc(C(=O)CC2(O)C(=O)N(Cc3ccccc3)c3ccccc32)o1 (stereo not drawn) | -4.9%
CCOC(=O)c1sc(N/N=C/c2cccc(C)c2)nc1C | 2.35%

Structure (SMILES) | hERG current change (%, negative = inhibition) at 10uM
O=C(c1cccnc1)N1CCN(C(=O)c2cccc(Cl)c2)CC1 | 22.4%
CC(=O)CN1C(=O)NC(c2ccccc2)(c2ccccc2)C1=O | -26.8%
Cc1ccc(C(=O)C=CNNC(=O)c2ccccc2)cc1 | -35.8%
Cc1ccc(OCCNC(=O)CNC(=O)c2ccccc2Cl)cc1 | -3.58%
CCc1cccc2c(C(=O)C(NCCCOC)c3ccccc3)c[nH]c12 (stereo not drawn) | 2.05%
Cc1cc(C)c2c(NC(=S)Nc3ccccc3)n[nH]c2n1 | 9.95%
Cc1ccccc1C(=O)N1CCN(c2ccc(NC(=O)c3ccco3)cc2)CC1 | 5.43%
O=c1oc2ccccc2c(O)c1/C=C1\C=Nc2ccccc21 | 3.98%
O=C(NC1CCCC1)c1c(O)nc2sccn2c1=O | -2.05%
CC(C)N(Cc1ccccc1)C(=O)COC(=O)c1ccc2ncsc2c1 | -10.1%
O=C(NNC(=O)[C@H]1CC=CC[C@H]1C(=O)O)c1ccc(Cl)cc1Cl | 20.1%
Cc1ccccc1OCC(=O)N(CC(C)C)c1c(N)n(CC(C)C)c(=O)[nH]c1=O | 0.716%
CCn1c(COc2ccc(C)cc2)nnc1SCc1ccc(C#N)cc1 | -59.6%
O=C(Nc1c(F)cccc1F)C(c1ccccc1)c1ccccc1 | 18%
CC(/C=C/c1ccccc1F)=N\NC(=O)c1ccc(Cl)cc1 | 23.5%
C[C@@H]1NS(=O)(=O)[C@H]2C[C@@H]3C=C[C@]2(O3)[C@H]1OC(=O)c1ccccc1Br | 4.24%
Cl.Nc1cnn(Cc2ccc(F)cc2)c1 | 15.1%
CN1CCCC(OC(=O)c2ccc(S(=O)(=O)N(C)C)cc2)C1.Cl (stereo not drawn) | 8.58%
CC(C)c1onc(C(=O)NC(C)c2ccccc2)c1[N+](=O)[O-] (stereo not drawn) | 10.1%
CC(C)CCNC(=O)CCCOc1cc(=O)n(C)c2ccccc12 | -1.2%
Cc1ccnc(Sc2nc3c(c(=O)[nH]c(=O)n3C)n2CCCc2ccccc2)n1 | 13.5%
